# In PubChem BioAssay AID1345083 (National Center for Advancing Translational Sciences (NCATS), 2018):
# “And” between values parts separate entries of the source, which are not always exact repeats. Identical values can stand only once. Out of some 94,000 compounds screened, about 6,200 (6.6%) were called active. The inconclusive results got no clear call from the source; some entries with a clear call stand among them for comparison. Calls follow the shape of the dose curve; as a rule, active = well fitted inhibition curve with a large enough effect; inconclusive = small, poorly fitted or top-dose-only effect; inactive = flat fitted curve, though single readings scatter. Potencies of inconclusive entries are doubtful fits and often do not repeat.
# Test: Cytotoxic Profiling in HEK 293 Cell Line of Diverse Libraries Using Quantitative High-Throughput Screening; also: nearly all actives have a fitted effect of over 60% in size
# Conditions: HEK 293 viability, ATP luminescence (CellTiter-Glo), 48-72 h; activity change, negative = cytotoxicity: at 115 µM (top of the series) unless noted; series mostly up to 115 µM
# Summary of the method: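 Luminescence from cellular ATP, measured with CellTiter-Glo, indicates HEK 293 viability. Cells plated at 250 cells/well are treated with compound for 48 or 72 hr at 37 degree Celsius before reagent addition.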
# % is scaled to controls: 0 for no effect and ±100 for the full control effect; potency is read from the fitted curve at half-maximal effect; tags tell the direction and shape of the fitted curve.
Compound,"activity change, negative = cytotoxicity",Potency,outcome
CN(Cc1ccc(F)cc1)S(C)(=O)=O,inactive: -2.63% [at 230 µM],,
COc1cc(OC)cc(C(=O)N2CCC(Cc3nc(-c4ccccc4)no3)CC2)c1,,"inconclusive: 50.1 µM [inhibitor, partial curve, poor fit]",
CC(C)CCC(=O)N1CCC(N2C(=O)CCC2C(=O)NC(C)C)CC1 (stereo unspecified),inactive: -28.9%,,
Fc1ccc(-c2cnc3n2C[C@H](CNCc2ccccc2Cl)OC3)cc1,,active: 79.4 µM,
O=C1c2c(-c3nc(-c4ccsc4)no3)nnn2CCN1Cc1ccc(F)cc1,,"inconclusive: 79.4 µM [inhibitor, partial curve, poor fit]",
COc1ccc(-c2ccc(C(=O)NC3CCCC3)c(Cl)c2)nn1,,"inconclusive: 126 µM [inhibitor, single point]",
Cc1ccc(C(=O)N2CCC(C3CCN(S(C)(=O)=O)CC3)C2)c(=O)[nH]1 (stereo unspecified),inactive: 1.11%,,
C=CCN1C[C@H](COCc2ccccc2)Oc2ccncc2[S+]1(=O)[O-],,"inconclusive: 25.1 µM [inhibitor, partial curve, poor fit]",
CC(=O)N[C@@H]1CN(Cc2cn[nH]c2-c2ccc(F)cc2)C[C@H]1CO,inactive: -18.7%,,
COC[C@@H]1CN(C(=O)c2ccc3ncccc3c2)C[C@H]1c1nc(C)no1,inactive: -0.388%,,
COCCNC(=O)c1ccc2c(c1)C1(CCN(CC3CC3)C1)CN2Cc1ccccc1 (stereo unspecified),,"inconclusive: 63.1 µM [inhibitor, full curve]",
COc1cccc(C(=O)NC2CCCN(Cc3ccc(-c4cc(C)cc(C)c4)cc3)C2)c1 (stereo unspecified),,"inconclusive: 50.1 µM [inhibitor, partial curve, poor fit]",
COc1ccc(Nc2cnc3ccc(-c4ccc(OC)nc4)nn23)cc1,,"inconclusive: 56.2 µM [inhibitor, full curve, poor fit]",
CCN1C(=O)CN(C(=O)c2cccs2)CC12CCOCC2,inactive: -12.2%,,
O=C1CC(c2ccccc2)N(C(=O)CC2CCCCC2)CCCCCCN1 (stereo unspecified),,"inconclusive: 44.7 µM [inhibitor, partial curve]",
COc1ccc(CN2CCN(c3ccccc3)CC2C)c(OC)c1OC (stereo unspecified),,"inconclusive: 56.2 µM [inhibitor, partial curve, poor fit]",
O=C(c1cccc(Cl)c1)N1CCC(N(C(=O)C2CC2)C2CCOCC2)CC1,inactive: 6.06%,,
NC(=O)[C@@H]1CN(C(=O)c2ccncn2)C[C@H]1COc1ccccc1,,"inconclusive: 89.1 µM [inhibitor, single point]",
CC(C)Nc1ccc(-c2ccc(S(=O)(=O)NC(C)(C)C)cc2)nn1,,"inconclusive: 89.1 µM [inhibitor, single point]",
Cc1ccc(NC(=O)N2CCc3c(c4cc(F)ccc4n3C)C2)cc1,,"inconclusive: 89.1 µM [inhibitor, single point]",
Cc1cccc(OCC2CCCN(C(=O)c3sc(C(C)C)nc3C)C2)c1 (stereo unspecified),,"inconclusive: 50.1 µM [inhibitor, partial curve, poor fit]",
CCCOc1ccc(C(=O)N2C[C@H](c3cccc(OC)c3)[C@@H](N)C2)cc1Cl,,"inconclusive: 50.1 µM [inhibitor, partial curve, poor fit]",

Compound,"activity change, negative = cytotoxicity",Potency,outcome
CCN1CCC(NCc2cccnc2N2CCN(c3ccccn3)CC2)CC1,inactive: -3.07%,,
Cc1noc(C)c1S(=O)(=O)N1CCC2(CC1)CC(C(=O)N1CCOCC1)N(C)C2 (stereo unspecified),inactive: -15.4%,,
COc1ccccc1/C=C/CN1CCn2nc(CO)cc2C1,,"inconclusive: 100 µM [inhibitor, partial curve, poor fit]",
CC1CCN(C(=O)C2(c3ccc(NC(=O)C4CC4)cc3)CCCCC2)CC1,,"inconclusive: 50.1 µM [inhibitor, partial curve, poor fit]",
CN(C)C(=O)NC1CCN(C(=O)c2ccc(-c3cccs3)cc2)CC1,,"inconclusive: 44.7 µM [inhibitor, partial curve, poor fit]",
COc1ccccc1CC(=O)N1CCCc2ncc(C(=O)NC(c3ccccc3)c3ccccc3)cc21,,"inconclusive: 31.6 µM [inhibitor, partial curve]",
Cc1cnc(C2CCC2)n1CCN,inactive: -12.9%,,
O=C(c1ccccc1F)N1CCCC(C(=O)N2CCC(N3CCOC3=O)CC2)C1 (stereo unspecified),inactive: -3.38%,,
COC[C@]1(O)CCN(C(=O)C2CCN(CC(N)=O)CC2)CC1(C)C,,,inactive
COc1ccc(Cl)cc1NC(=O)c1c(OC)cc(=O)n2c1CCCC2,,"inconclusive: 10 µM [inhibitor, full curve]",
COc1cccc(C(=O)NCCn2ccn3nc(-c4ccc(C)c(C)c4)cc3c2=O)c1OC,,"inconclusive: 22.4 µM [inhibitor, full curve, poor fit]",
O=c1n(-c2ccc(C(F)(F)F)cc2)nc2n1CCN(S(=O)(=O)c1cccs1)C2,,"inconclusive: 39.8 µM [inhibitor, partial curve, poor fit]",
Cc1noc(C)c1-c1cc2c(c(-c3ccc([S+](C)(=O)[O-])cc3)c1)C(=O)N(C)C2,inactive: -27.1% [at 172 µM],,
CC(C)C(=O)N1Cc2ccccc2CC2(CCCCN2Cc2ccncc2)C1 (stereo unspecified),,"inconclusive: 50.1 µM [inhibitor, partial curve, poor fit]",
CCN1Cc2nc(OC)c(CNC(=O)C3(C)CCCCO3)cc2C1=O (stereo unspecified),inactive: 4.52%,,
Cc1ccc(-c2ccccc2CN2CCN([S+](=O)([O-])c3ccccc3)CC2)cc1Cl,,"inconclusive: 22.4 µM [inhibitor, full curve, poor fit]",
O=C(c1ccccc1)N1CCCN(Cc2ccc3c(c2)OCO3)c2ccccc21,,active: 35.5 µM,
O=C1CN(Cc2cccc(-c3cccs3)c2)CCN1c1ccc(Cl)nn1,,"inconclusive: 56.2 µM [inhibitor, partial curve, poor fit] and inconclusive: 89.1 µM [inhibitor, partial curve, poor fit]",
CCCN1CCCC2(Cc3ccccc3CN(C(=O)Cc3ccc(OC)cc3)C2)C1 (stereo unspecified),inactive: -27.9%,,
CCN(Cc1nc2ccccc2[nH]1)CC1CCCN(CCc2cccc(F)c2)C1 (stereo unspecified),,"inconclusive: 50.1 µM [inhibitor, partial curve, poor fit]",
COc1ccc(Nc2ccnc(N3CCCC(C(=O)NC(C)C)C3)n2)cc1 (stereo unspecified),,"inconclusive: 35.5 µM [inhibitor, full curve, poor fit]",
Fc1ccc(C2Cn3cnc(-c4nc(-c5cccs5)no4)c3CO2)cc1 (stereo unspecified),inactive: -25.4%,,

Compound,"activity change, negative = cytotoxicity",Potency,outcome
COc1cc(OC)cc(-c2onc(C)c2C(=O)NC2Cc3ccccc3C2)c1,,"inconclusive: 100 µM [inhibitor, single point]",
C[C@@H](NC(=O)N1CCOC[C@H]1c1ncc(-c2ccc(Cl)cc2)[nH]1)c1ccccc1,,"inconclusive: 63.1 µM [inhibitor, partial curve, poor fit]",
O=C(Nc1ccc(F)c(Cl)c1)c1cc2n(n1)CC(c1ccc(Cl)cc1)OC2 (stereo unspecified),,"inconclusive: 50.1 µM [inhibitor, partial curve, poor fit]",
CN(C)S(=O)(=O)N1CCC(C(=O)Nc2ccc(Oc3cccnc3)cc2)CC1,,"inconclusive: 50.1 µM [inhibitor, partial curve, poor fit]",
CSc1ccc(-c2cccc(C(=O)NCCNC(=O)Cc3cccc(Cl)c3)c2)cc1,,"inconclusive: 39.8 µM [inhibitor, partial curve]",
Cc1nn2c(c1-c1ccccc1OCc1ccccc1)N(Cc1ccccc1O)CCC2,,"inconclusive: 50.1 µM [inhibitor, full curve, poor fit]",
CCOc1cc(CN2CCOc3ccc(C(=O)NCc4ccc(C)cc4)cc3C2)ccc1O,,"inconclusive: 89.1 µM [inhibitor, single point]",
O=C(c1ccc2ccccc2n1)N1CCC2(CC1)CC(Cc1cccc(F)c1)CCO2 (stereo unspecified),,"inconclusive: 56.2 µM [inhibitor, partial curve, poor fit]",
O=C1NC(=NC2CCCC2)C2(CCN(CC3CCCCC3)C2)N1c1cc(F)cc(F)c1 (stereo unspecified),,active: 35.5 µM,
CCN(CC)c1cc(CCC(=O)N(C)Cc2ccccc2)ccn1,,"inconclusive: 56.2 µM [inhibitor, partial curve, poor fit]",
COc1ccc(Cn2c(C3CCN(C(=O)c4cc(Cl)ccc4F)CC3)n[nH]c2=O)cc1,,"inconclusive: 22.4 µM [inhibitor, full curve]",
CCCn1c(C)cnc1CCNC(=O)C1(c2ccc(OC)cc2)CC1,inactive: -15.4%,,
CSc1ccc(C(=O)N2CC(=O)NCC(C)(C)C2)cc1,inactive: -21.5%,,
COc1cccc(-c2cccc(C(=O)N3CCCC3C(=O)N3CCC(C#N)CC3)c2)c1 (stereo unspecified),inactive: -19.3%,,
Cc1ccc(S(=O)(=O)N2CCC(CC(=O)NCc3ccccc3)C2)cc1C (stereo unspecified),,"inconclusive: 89.1 µM [inhibitor, single point]",
COC1C(=O)N(C2CCN(C(=O)c3cnn(C)c3)CC2)C12CCOCC2 (stereo unspecified),,,inactive
Cc1nn(-c2ccc(C(C)C)cc2)c(C)c1[C@@H]1C=C[C@@H](NC(=O)COCC(=O)O)C1,inactive: -18.7% [at 172 µM],,
CCC(=O)N1CCc2sc(C(=O)NCc3cccs3)cc2C1,inactive: -8.88%,,
COc1ccc(C(=O)NC[C@H]2O[C@@H](CO)[C@@H](O)[C@H]2N2CCN(c3cccc(C(F)(F)F)c3)CC2)cc1,,"inconclusive: 70.8 µM [inhibitor, partial curve]",
C[S+](=O)([O-])NCc1nnc2n1C(C(=O)NCc1ccccc1F)CC2 (stereo unspecified),,,inactive
O=C1CC(c2ccccc2)N(C(=O)CNC(=O)c2cc3ccccc3[nH]2)CCCCCN1 (stereo unspecified),inactive: -24.2%,,
COc1ccc(NC(=O)c2cnc3c(c2)N(C(=O)Cc2ccc(O)cc2)CCC3)cn1,,"inconclusive: 100 µM [inhibitor, partial curve]",
